# The whole screen tested about 310,000 compounds, of which about 11,000 (3.5%) were called active. This list was built around the results that the source calls inconclusive (neither active nor inactive); the mix of calls is not that of the screen. Calls follow the shape of the dose curve; as a rule, active = well fitted inhibition curve with a large enough effect; inconclusive = small, poorly fitted or top-dose-only effect, or effect the other way; inactive = flat fitted curve, though single readings scatter. No potency is given beside an inconclusive call; the fits are too rough.
# Assay: VP16 counterscreen qHTS for inhibitors of ROR gamma transcriptional activity;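 also: Gal4-VP16 expression switched on by copper sulfate through the metallothionein promoter; nearly all actives have a fitted effect of over 50% in size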
# Details: Drosophila S2 Gal4-VP16 UAS-luciferase, luminescence, 20 h; series mostly up to 53.6 µM
# Potency is read from the fitted curve at half-maximal effect; tags tell the direction and shape of the fitted curve.
row,Compound,Potency
1,Cc1ccc(C(=O)N/N=C\c2cccs2)cn1,"inconclusive [inhibitor, single point]"
2,CC(C)(C)NC(=O)C(OC(=O)c1cccs1)c1ccccc1 (stereo unspecified),"inconclusive [activator, single point]"
3,COc1ccc(-c2nc3ncccc3n2O)cc1,inactive
4,O=C(/C=C/c1ccco1)Nc1ccccc1C(=O)O,"inconclusive [inhibitor, single point]"
5,C=CCOC(=O)C(=O)/C=C/c1csc2ccccc12,"inconclusive [inhibitor, single point]"
6,Cc1ccc(-c2noc(-c3ccccc3Br)n2)cc1,"inconclusive [inhibitor, partial curve]"
7,CN(C)C(CNC(=O)c1cccc(S(=O)(=O)N(C)C)c1)c1ccccc1 (stereo unspecified),inactive
8,CN(C)c1ccc(-c2nc3ccccc3n2C)cc1,"inconclusive [inhibitor, partial curve, poor fit]"
9,CCc1ccc(OCC(=O)N2CC(C(N)=O)Oc3ccccc32)cc1 (stereo unspecified),inactive
10,Cc1ccc(N=Nc2c(C)[nH]n(C(N)=S)c2=O)cc1,active: 0.891 µM
11,CN(NC(N)=O)c1ncc(C(F)(F)F)cc1Cl,inactive
12,S=C(Nc1ccc(Oc2ccccc2)cc1)Nc1cccnc1,"inconclusive [inhibitor, single point]"
13,O=C(O)c1ccccc1CSc1nc2ccccc2[nH]1,"inconclusive [inhibitor, single point]"
14,CCc1cc2ccc(C)cc2nc1SCC(=O)Nc1cc(OC)c(OC)cc1C(=O)O,"inconclusive [activator, single point]"
15,Cc1nn(-c2ccccn2)c(N)c1N=O,"inconclusive [inhibitor, single point]"
16,OCl,inactive
17,O=C1/C(=C/c2cccs2)SC(=S)N1CCC(=O)N1CCCCC1CCO (stereo unspecified),active: 11.2 µM
18,COc1cc(/C=N/N2CCN(Cc3ccc(Cl)cc3)CC2)cc(Br)c1O,"inconclusive [inhibitor, single point]"
19,Cc1cccc(OCCCC(=O)Nc2nccs2)c1C,inactive
20,Oc1ccc2ccccc2c1C=NCc1ccccc1,"inconclusive [inhibitor, single point]"
21,Cn1ncc(Cl)c1C(=O)NCc1ccc2c(c1)OCO2,"inconclusive [inhibitor, single point]"
22,O=C(N/N=C(\c1ccccc1)c1cccnc1)C(O)(c1ccccc1)c1ccccc1,inactive
23,CN(C(=O)Cn1nnc(-c2cccnc2)n1)C1CCCCC1,inactive
24,CCOC(=O)C1=CN(C(=O)OC(C)(C)C)C(CN2C(=O)COCC2=O)C1 (stereo unspecified),"inconclusive [inhibitor, single point]"
25,Cc1nc(NC(=O)c2ccc(OCC(C)C)cc2)sc1Cc1ccc2c(c1)OCO2,"inconclusive [inhibitor, single point]"
26,COc1ccc2[nH]c3c(=O)n(Cc4ccc(C(=O)N5CCCCCC5)cc4)c(=S)[nH]c3c2c1,inactive

row,Compound,Potency
1,Oc1cccc(Nc2nc(NCC3CCCO3)c3ccccc3n2)c1 (stereo unspecified),"inconclusive [inhibitor, single point]"
2,C=CCSc1n[nH]c(-c2cccs2)n1,"inconclusive [inhibitor, single point]"
3,O=C(Nc1nccs1)c1cc(-c2ccco2)nc2ccccc12,inactive
4,COc1ccc(C2(C)NC(=O)N(CC(=O)Nc3ccc(Br)c(C)c3)C2=O)cc1OC (stereo unspecified),inactive
5,Cc1cc(=O)n2[nH]c(-c3ccc(Cl)cc3)cc2n1,"inconclusive [inhibitor, single point]"
6,O=C(NC(=S)N1CCN(Cc2ccc3c(c2)OCO3)CC1)c1ccc(Cl)cc1,active: 0.631 µM
7,Cc1ccc(C(=O)CC(=O)c2ccc(C(C)(C)C)cc2)cc1,"inconclusive [inhibitor, single point]"
8,COc1cccc(N/C(N)=N/c2nc(CSc3ccccn3)cc(=O)[nH]2)c1,"inconclusive [inhibitor, single point]"
9,O=C(NC(NC(=S)Nc1cccc(Cl)c1)C(Cl)(Cl)Cl)OCc1ccccc1 (stereo unspecified),"inconclusive [inhibitor, single point]"
10,Nc1ccc(Nc2nc(-c3ccncc3)cs2)cc1,"inconclusive [inhibitor, single point]"
11,CCN(Cc1ccncc1)Cc1c(O)ccc2cc(Br)ccc12,"inconclusive [inhibitor, single point]"
12,O=C(N=NC(=O)c1ccc2c(O)n(C3CCCCC3)c(O)c2c1)c1cccnc1,inactive
13,CCCCCCC(=O)N(O)C1CC(=O)N(Cc2ccccc2)C1=O (stereo unspecified),inactive
14,Cc1c(N/C(=N/S(=O)(=O)c2cc([N+](=O)[O-])ccc2Cl)c2ccccc2)c(=O)n(-c2ccccc2)n1C,inactive
15,COc1cc(/C=C2\CCc3ccccc3C2=O)cc(OC)c1OC,"inconclusive [activator, single point]"
16,Cc1ccc(S(=O)(=O)/C=C\C#N)cc1,active: 0.562 µM
17,CN(C)c1cc(C(F)(F)F)nc(-c2ccccn2)n1,"inconclusive [inhibitor, single point]"
18,CCOCCCNC(=O)/C(C#N)=C/c1ccc(Cl)c([N+](=O)[O-])c1,"inconclusive [inhibitor, single point]"
19,CC(=O)OCC1(C)CN(c2ccccc2)N(C(=O)c2ccc(F)cc2)C1=O (stereo unspecified),"inconclusive [inhibitor, single point]"
20,Fc1ccc(NC(=S)Nc2cccc3ccccc23)cc1,"inconclusive [inhibitor, single point]"
21,Cc1ccc2c(c1)C1CC(C)(O2)N(c2cccc(C(=O)NCc3ccccn3)c2)C(=O)N1 (stereo unspecified),inactive
22,CCOC(=O)COc1ccc(S(=O)(=O)Nc2ccc3c(c2)OCO3)cc1,"inconclusive [inhibitor, partial curve]"
23,CCC(=O)Nc1ccc(NC(=S)NC(=O)/C=C/c2ccco2)cc1,inactive
24,O=C(c1cnc(N2CCN(c3ccccn3)CC2)c2ccccc12)N1CCN(c2cccc(Cl)c2)CC1,active: 1.58 µM
25,CCOC(=O)c1cc(-c2ccccc2)sc1NC(=S)Nc1cc(C)ccn1,active: 2.24 µM
26,O=C(c1ccc(Br)cc1)c1sc(N2CCOCC2)nc1-c1ccccc1,inactive

row,Compound,Potency
1,COc1ccc(OC)c(NC(=O)C(C)N2c3cccc4cccc(c34)S2(=O)=O)c1 (stereo unspecified),inactive
2,Cc1ccccc1NC(=O)COC(=O)c1ccc(S(C)(=O)=O)c([N+](=O)[O-])c1,"inconclusive [inhibitor, single point]"
3,CC(=O)c1ccc(N2CCN(C(=O)c3cccc(Oc4ccccc4)c3)CC2)cc1,"inconclusive [inhibitor, single point]"
4,Cc1ccc2nc(-c3ccc(-c4ccccn4)s3)cn2c1,active: 0.891 µM
5,C/C(Cn1nnc([N+](=O)[O-])n1)=N\NC(=O)c1ccncc1,"inconclusive [inhibitor, partial curve]"
6,O=C(NCC1CCCO1)c1ccc(COc2ccc(Br)cc2)cc1 (stereo unspecified),"inconclusive [inhibitor, partial curve, poor fit]"
7,COc1ccc(NC(=O)CN(C)C(=O)c2ccc(=O)[nH]c2)cc1,"inconclusive [inhibitor, partial curve, poor fit]"
8,Cc1ccc(S(=O)(=O)Nc2ccc(O)c3cccnc23)cc1,"inconclusive [inhibitor, single point]"
9,Cc1cc(C)nc(NCCC(=O)O)n1,inactive
10,CC(C)(C)c1ccc(C(=O)NC(=S)Nc2ccc(N3CCOCC3)cc2)cc1,active: 7.08 µM
11,COc1ccc(CCNS(=O)(=O)c2ccc3c(c2)NC(=O)CO3)cc1OC,inactive
12,Nc1c(C(=O)c2ccccc2)sc2nsc(SCCN3CCOCC3)c12,"inconclusive [inhibitor, single point]"
13,Cc1ccc(-n2ncc3c(=O)n(CC(=O)NCc4ccco4)cnc32)cc1C,inactive
14,Cc1ccc(-c2nc(-c3ccccc3)no2)cc1,active: 12.6 µM
15,Cc1ccc(/C=N/n2c(-c3ccncc3)n[nH]c2=S)cc1,active: 12.6 µM
16,COc1ccc(CCNC(=S)NC(=O)c2ccc(Br)cc2)cc1OC,"inconclusive [inhibitor, single point]"
17,C=CCn1c(COc2ccccc2F)nnc1SCC(=O)c1c[nH]c2ccccc12,"inconclusive [inhibitor, partial curve]"
18,O=C(CCc1ccc(S(=O)(=O)NC2CCCCC2)cc1)N(Cc1ccccc1)Cc1ccccc1,inactive
19,Cc1ccc(/C=C2/NC(=O)N(Cc3ccccc3F)C2=O)o1,"inconclusive [inhibitor, single point]"
20,Cc1ccc(-c2csc3nc[nH]c(=S)c23)cc1C,"inconclusive [inhibitor, full curve, poor fit]"
21,CC(C)c1ccc(CNc2ccc3c(c2)ncn3C)cc1,"inconclusive [inhibitor, single point]"
22,O=C(Cc1ccccc1)Nc1ccc(C(=O)NCC2COc3ccccc3O2)cc1 (stereo unspecified),"inconclusive [inhibitor, single point]"
23,Cc1ccc(Cl)cc1NC(=O)CCS(=O)(=O)c1cccc2nonc12,inactive
24,C/C(=N\NC(=O)c1sccc1C)c1ccncc1,"inconclusive [activator, single point]"
